# Experimental data: a collection of fitness landscapes (doi:10.1126/science.1257360)
# Some of the results follow.
# B1: PhoQ; a variant is named by its letters at X, in order, P23837 (parent)
# chain: MKKLLRLFFPLSLRVRFLLATAAVVLVLSLAYGMVALIGYSVSFDKTTFRLLRGESNLFYTLAKWENNKLHVELPENIDKQSPTMTLIYDENGQLLWAQRDVPWLMKMIQPDWLKSNGFHEIEADVNDTSLLLSGDHSIQQQLQEVREDDDDAEMTHSVAVNVYPATSRMPKLTIVVVDTIPVELKSSYMVWSWFIYVLSANLLLVIPLLWVAAWWSLRPIEALAKEVRELEEHNRELLNPATTRELTSLVRNLNRLLKSERERYDKYRTTLTDLTHSLKTPLXXLQXXLRSLRSEKMSVSDAEPVMLEQISRISQQIGYYLHRASMRGGTLLSRELHPVAPLLDNLTSALNKVYQRKGVNISLDISPEISFVGEQNDFVEVMGNVLDNACKYCLEFVEISARQTDEHLYIVVEDDGPGIPLSKREVIFDRGQRVDTLRPGQGVGLAVAREITEQYEGKIVAGESMLGGARMEVIFGRQHSAPKDE
# Variants of: B1
# Assay: enrichment ratio after two sorts for PhoP signalling (ratio (wild type AVST 3.29)); higher = more functional
# Details: with PhoP (E. coli)
row,Variant,enrichment ratio
1,GRSL,≤ 0.25
2,NCVV,≤ 0.25
3,MSIY,≤ 0.25
4,KNCN,≤ 0.25
5,IPHA,≤ 0.25
6,LSIT,≤ 0.25
7,DFGV,≤ 0.25
8,HDAI,≤ 0.25
9,NAYF,≤ 0.25
10,SSQE,7.49
11,RRKH,≤ 0.25
12,SEMQ,8.89
13,AQTA,≤ 0.25
14,WFMC,≤ 0.25
15,LELA,≤ 0.25
16,AQQW,≤ 0.25
17,PPHP,≤ 0.25
18,GRVV,≤ 0.25
19,NNFN,≤ 0.25
20,VYDD,≤ 0.25
21,QSKN,≤ 0.25
22,TAGD,9.3
23,TIPF,≤ 0.25
24,HNTM,≤ 0.25

row,Variant,enrichment ratio
1,DQIM,≤ 0.25
2,AWFK,≤ 0.25
3,HHPG,≤ 0.25
4,MSKP,≤ 0.25
5,HHAC,≤ 0.25
6,VSND,≤ 0.25
7,IWCN,≤ 0.25
8,QPEF,≤ 0.25
9,VTYT,≤ 0.25
10,MFQY,≤ 0.25
11,KCCT,≤ 0.25
12,ESCF,≤ 0.25
13,PFLW,≤ 0.25
14,KDCS,≤ 0.25
15,SEDE,≤ 0.25
16,YPEK,≤ 0.25
17,SQPA,≤ 0.25
18,SSID,≤ 0.25
19,YETT,≤ 0.25
20,HKPH,≤ 0.25
21,PSCW,≤ 0.25
22,KSNW,≤ 0.25
23,KYFP,≤ 0.25
24,QGGV,8.5

row,Variant,enrichment ratio
1,KSYR,≤ 0.25
2,MMNV,≤ 0.25
3,EGIE,≤ 0.25
4,MYKK,≤ 0.25
5,QIHK,≤ 0.25
6,YWWG,≤ 0.25
7,MVMK,≤ 0.25
8,PPTR,≤ 0.25
9,STGK,≤ 0.25
10,NTDA,≤ 0.25
11,GSKN,≤ 0.25
12,IAEP,≤ 0.25
13,IFWD,≤ 0.25
14,FCMV,6.72
15,IIYI,≤ 0.25
16,SSFR,≤ 0.25
17,HNSE,≤ 0.25
18,YQGG,≤ 0.25
19,HPFN,≤ 0.25
20,EFHQ,≤ 0.25
21,YVYV,≤ 0.25
22,SSHN,≤ 0.25
23,KSQK,≤ 0.25
24,THFF,≤ 0.25

row,Variant,enrichment ratio
1,SYLE,≤ 0.25
2,DQPH,≤ 0.25
3,LRSI,≤ 0.25
4,WLYN,≤ 0.25
5,MSTF,≤ 0.25
6,FFPR,≤ 0.25
7,LQLF,≤ 0.25
8,VHPH,≤ 0.25
9,MQHK,≤ 0.25
10,YKIT,≤ 0.25
11,SCML,11.2
12,ISWK,≤ 0.25
13,YNQS,≤ 0.25
14,QAYH,≤ 0.25
15,YARR,≤ 0.25
16,TGQN,8.68
17,VAPE,≤ 0.25
18,TTVC,1.8
19,RYDW,≤ 0.25
20,NNWS,≤ 0.25
21,QDIS,≤ 0.25
22,LRAC,≤ 0.25
23,YDRP,≤ 0.25
24,MDCV,≤ 0.25

row,Variant,enrichment ratio
1,YNWR,≤ 0.25
2,YRIM,≤ 0.25
3,MFWH,≤ 0.25
4,DWGE,≤ 0.25
5,FTCK,≤ 0.25
6,YCVI,≤ 0.25
7,YRRP,≤ 0.25
8,APMW,≤ 0.25
9,ILML,≤ 0.25
10,VQVF,≤ 0.25
11,KHPK,≤ 0.25
12,GCSH,≤ 0.25
13,TEMV,20.2
14,DEMF,≤ 0.25
15,VNKF,≤ 0.25
16,FLNM,≤ 0.25
17,TCYI,1.36
18,MREH,≤ 0.25
19,DRMY,≤ 0.25
20,AFHH,≤ 0.25
21,EHCG,≤ 0.25
22,KHGL,≤ 0.25
23,PPHL,≤ 0.25
24,VTAH,≤ 0.25

row,Variant,enrichment ratio
1,MQCL,1.47
2,FYRH,≤ 0.25
3,WTHT,≤ 0.25
4,HRFE,≤ 0.25
5,YSNR,≤ 0.25
6,KSRR,≤ 0.25
7,DIGY,≤ 0.25
8,DFLK,≤ 0.25
9,MACF,≤ 0.25
10,VSTG,≤ 0.25
11,SYYY,≤ 0.25
12,ASAW,≤ 0.25
13,HRGI,≤ 0.25
14,ANKL,≤ 0.25
15,AIYC,0.353
16,MFKL,≤ 0.25
17,ATAM,≤ 0.25
18,AGIW,≤ 0.25
19,PIPY,≤ 0.25
20,HQET,≤ 0.25
21,TKFA,≤ 0.25
22,DCNE,≤ 0.25
23,PVVW,≤ 0.25
24,SSQW,≤ 0.25

row,Variant,enrichment ratio
1,YWRD,≤ 0.25
2,ASRM,≤ 0.25
3,DPRW,≤ 0.25
4,AWKG,≤ 0.25
5,HQDH,≤ 0.25
6,MSYF,6.68
7,AIAC,19.1
8,WSNM,≤ 0.25
9,FPGF,≤ 0.25
10,SFNN,≤ 0.25
11,NHNK,≤ 0.25
12,RHVK,≤ 0.25
13,YTSY,≤ 0.25
14,KQLA,≤ 0.25
15,NWMI,≤ 0.25
16,HAWY,≤ 0.25
17,MGQH,≤ 0.25
18,DQMT,≤ 0.25
19,VWNY,≤ 0.25
20,RHFN,≤ 0.25
21,HLAW,≤ 0.25
22,PILF,≤ 0.25
23,KGVV,≤ 0.25
24,KRES,≤ 0.25

row,Variant,enrichment ratio
1,SDIR,≤ 0.25
2,QETF,≤ 0.25
3,MALD,≤ 0.25
4,YQVW,≤ 0.25
5,GKFA,≤ 0.25
6,KNYL,≤ 0.25
7,MDLS,≤ 0.25
8,QFKS,≤ 0.25
9,FGWH,≤ 0.25
10,YARV,≤ 0.25
11,LTCH,≤ 0.25
12,WVVY,≤ 0.25
13,ASAQ,4.22
14,MEPN,≤ 0.25
15,RKDS,≤ 0.25
16,YVCN,≤ 0.25
17,EPII,≤ 0.25
18,PTMF,≤ 0.25
19,KYFT,≤ 0.25
20,VPRS,≤ 0.25
21,NRTN,≤ 0.25
22,PVYM,≤ 0.25
23,HQHT,≤ 0.25
24,AAMQ,≤ 0.25

row,Variant,enrichment ratio
1,RIQA,≤ 0.25
2,DRFG,≤ 0.25
3,HFTF,≤ 0.25
4,YIWC,≤ 0.25
5,FSYF,≤ 0.25
6,IRLC,≤ 0.25
7,YDEN,≤ 0.25
8,DKLG,≤ 0.25
9,KLHF,≤ 0.25
10,MEPG,≤ 0.25
11,SNWW,≤ 0.25
12,WDPF,≤ 0.25
13,LDFS,≤ 0.25
14,GDSL,≤ 0.25
15,TINN,12.6
16,ILWF,≤ 0.25
17,IAMM,13.5
18,FSHS,≤ 0.25
19,QCYR,≤ 0.25
20,QDVV,≤ 0.25
21,TESW,2.87
22,SHYI,≤ 0.25
23,PCRG,≤ 0.25
24,LHND,≤ 0.25

row,Variant,enrichment ratio
1,ERMV,≤ 0.25
2,WKSS,≤ 0.25
3,HSHA,≤ 0.25
4,ADYA,≤ 0.25
5,KGGK,≤ 0.25
6,SISW,10.4
7,SYHW,≤ 0.25
8,PKMM,≤ 0.25
9,LFSV,≤ 0.25
10,KMIW,≤ 0.25
11,DQKG,≤ 0.25
12,AMVW,11.8
13,NMTI,≤ 0.25
14,KNYH,≤ 0.25
15,DNPG,≤ 0.25
16,TYEE,≤ 0.25
17,FWCP,≤ 0.25
18,QGRW,≤ 0.25
19,VFKH,≤ 0.25
20,KCLN,≤ 0.25
21,ISVI,≤ 0.25
22,DHFT,≤ 0.25
23,LPED,≤ 0.25
24,WVLN,≤ 0.25

row,Variant,enrichment ratio
1,QFAR,≤ 0.25
2,ILES,≤ 0.25
3,YLMA,≤ 0.25
4,SRDV,≤ 0.25
5,DHMS,≤ 0.25
6,DQLN,≤ 0.25
7,GTSC,≤ 0.25
8,WRYA,≤ 0.25
9,AWAA,≤ 0.25
10,GQKS,≤ 0.25
11,DWVT,≤ 0.25
12,EVAS,≤ 0.25
13,DTKV,≤ 0.25
14,WWRP,≤ 0.25
15,NVFT,≤ 0.25
16,PVMR,≤ 0.25
17,ELDK,≤ 0.25
18,SCRY,≤ 0.25
19,KKAE,≤ 0.25
20,ACVG,4.01
21,FMKY,≤ 0.25
22,HLFI,≤ 0.25
23,WARV,≤ 0.25
24,DNAD,≤ 0.25

row,Variant,enrichment ratio
1,GGKG,≤ 0.25
2,SLTE,≤ 0.25
3,DRSS,≤ 0.25
4,PCPM,≤ 0.25
5,ELHR,≤ 0.25
6,TSVS,6.07
7,VFFM,≤ 0.25
8,TTRI,≤ 0.25
9,WRGC,0.523
10,HPQL,≤ 0.25
11,FMCR,≤ 0.25
12,KQIW,≤ 0.25
13,GDNR,≤ 0.25
14,MVNH,≤ 0.25
15,VYMM,≤ 0.25
16,LVSQ,≤ 0.25
17,KRVD,≤ 0.25
18,FDKF,≤ 0.25
19,FLEM,≤ 0.25
20,VEIG,≤ 0.25
21,GDHT,≤ 0.25
22,MEAT,17.9
23,YWNM,≤ 0.25
24,TYYS,≤ 0.25

row,Variant,enrichment ratio
1,SGFF,≤ 0.25
2,VKKR,≤ 0.25
3,WSNG,≤ 0.25
4,RPLN,≤ 0.25
5,WYWM,≤ 0.25
6,WKFT,≤ 0.25
7,SPHC,≤ 0.25
8,KYAQ,≤ 0.25
9,PAIY,≤ 0.25
10,GGGI,3.01
11,YVVP,≤ 0.25
12,SKES,≤ 0.25
13,KNEA,≤ 0.25
14,WSYN,≤ 0.25
15,VMLV,≤ 0.25
16,HQYP,≤ 0.25
17,YFHS,≤ 0.25
18,ITGD,≤ 0.25
